Measurements published in the RNAGym collection of RNA variant scans (doi:10.1093/nar/gkz1192).
Read counts are not given, so values of variants with three or more changes are uncertain.

B1: CPEB3 Ribozyme (parent)
chain: UAACAGGGGGCCACAGCAGAAGCGUUCACGUCGCAGCCCCUGUCAGAUUCUGGUGAAUCUGCGAAUUCUGCUGUAUAUCUC

Variants of: B1
Assay: self-cleavage, relative activity (ratio to wild type); higher = more cleavage; in vitro, sequencing
Method in brief: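 Barcoded CPEB3 ribozyme mutants, produced by rounds of error-prone PCR, self-cleaved while being transcribed with T7 RNA polymerase for 5 hours at 37°C and during a subsequent 15 min DNase I step before EDTA was added. Sequencing of template-switched cDNA on Illumina gave cleaved and total reads, and DNA sequencing assigned barcodes to variants. Each variant's relative activity is its cleaved/total read fraction divided by the unmutated ribozyme's fraction, averaged across three batches. A variant needed a minimum of 5 reads.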

Variant | self-cleavage
G9U G30A C40U A45G U74A | 0.05
G9U G30A U41C | 0.18
G9U G30C U69C G70A | 0.14
G9U G36U U78C | 0.07
G9U G42A G61C G70U | 0.04
G9U G42A U66C G70A U78C | 0.05
G9U G53A U72A | 0.13
G9U G63C U76C | 0.16
G9U G73A C81U | 0.15
G9U U25A U26C | 0.32
G9U U25A U60C G73A | 0.31
G9U U25C C32U | 0.12
G9U U25C C59U | 0.06
G9U U25C U26C U41A | 0.04
G9U U25C U43C A45G U67C | 0.05
G9U U25C U43C A47G U51C U60C U66C | 0.26
G9U U25C U54G | 0.13
G9U U25C U58C | 0.05
G9U U26A A77U | 0.21
G9U U26A U31C U43C U54G A56U A77C | 0.04
G9U U26A U48C U72C U78C | 0.05

Variant | self-cleavage
G9U U26A U54C A56G G70A | 0.03
G9U U26C G33A U67C A77G | 0.05
G9U U26C U69A | 0.17
G9U U31C A45G G70A | 0.17
G9U U31C A57G U69C | 0.21
G9U U31C U51A U72A | 0.08
G9U U31C U80C | 0.2
G9U U41A G53A | 0.16
G9U U41A U76C A77G | 0.05
G9U U41C U49C G52A U67A | 0.06
G9U U41C U54A | 0.21
G9U U41C U80C | 0.16
G9U U41G U60A A65G | 0.04
G9U U43A U60A U69A | 0.05
G9U U43C A57G | 0.16
G9U U43C A65U | 0.37
G9U U49A U66C | 0.05
G9U U49C A64G G73A A75U | 0.04
G9U U49C U76A | 0.14
G9U U51C A65G U80A | 0.11
G9U U51G A57U U72C U74C | 0.06

Variant | self-cleavage
G9U U54C C62U U72A | 0.04
G9U U54C U60A U67C | 0.06
G9U U67C U72A | 0.11
G9U U69C G73U U74A U78C | 0.06
G9U U72A U78C | 0.08
G9U U72C U76C | 0.34
G9U U72C U80A | 0.07
G10A A13C A45G U51C U54C | 0.05
G10A A13G A21G U26C | 0.06
G10A A13G A35G C38U A64G | 0.08
G10A A13G C37U A57G A64G U69A U80C | 0.05
G10A A13G G16A U25C U26A | 0.05
G10A A13G U49C | 0.29
G10A A13G U51C A64U | 0.26
G10A A13G U54C U72C | 0.06
G10A A13U A35G U80A | 0.82
G10A A13U U26C U51C | 0.09
G10A A15C U26C C29G C37U A64G | 0.04
G10A A15G A18U A20G C71U | 0.04
G10A A15G A20U U25C A47G U51A A77U | 0.07
G10A A15G C17U | 0.46

Variant | self-cleavage
G10A A15G C29U U69A | 0.07
G10A A15G U25C A45U A65G A75G C81U | 0.03
G10A A15G U25G U31C | 0.27
G10A A15G U26A G42A A64G | 0.05
G10A A15G U26G C29U A35U G36A U51A | 0.03
G10A A15G U43C A56G G63U U78C | 0.05
G10A A15G U48C A64G | 0.16
G10A A15G U49C U54A A75G | 0.05
G10A A15U U48C U51A | 0.08
G10A A15U U48C U72A | 0.06
G10A A15U U51A U54C U58A U66C | 0.13
G10A A18G C38G A45U U74C | 0.03
G10A A18G G22U A28G A35G G36A U41A | 0.04
G10A A18G U25A | 0.08
G10A A18G U26C A28U C32U U41G | 0.04
G10A A18G U48C C68U | 0.16
G10A A18U U31A A56G A65G | 0.04
G10A A18U U49C G55U | 0.14
G10A A20G A21G A65G U69A | 0.24
G10A A20G A57G | 0.35
G10A A20G C29G U54G A56G C79U | 0.04
